Test results published in ChEMBL document CHEMBL4888484, “Replenishing the malaria drug discovery pipeline: Screening and hit evaluation of the MMV Hit Generation Library 1 (HGL1) against asexual blood stage Plasmodium falciparum ,using a nano luciferase reporter read-out” (2022).
Screen size: about 150,000 compounds; about 540 (0.36%) showed an effect of 50% or more. This is one part of the list.

Test system: Plasmodium falciparum
Assay: Primary screen in NF54 nanoGlo assay, in single point, at 2uM, 72h; a lower Z score goes with more inhibition
Type: functional, Erythrocyte
Conditions: timepoint 72 hour

First: O=C(NCCc1c[nH]c2cc(F)c(Cl)cc12)[C@H]1CC1(F)F
Second: Cc1c[nH]c(CN(C)Cc2cc(Cl)ccc2OCC(N)=O)n1
The “% Inhibition” value of the first is higher: 2% for the first, -6% for the second.

Going from `CCOC(=O)N(C)CC(=O)Nc1ncc(C)s1` to `CCOC(=O)c1ccc(C(=O)O[C@@H](CC(C)C)C(=O)OC)nc1C`, the “% Inhibition” value falls from 16% to -10%.

Going from `C[C@@H](c1cccnc1)N(C)Cc1cc(CN2CCCC2)cs1` to `Cc1cccnc1CCNC(=O)N(C)[C@@H](C)c1ccncn1`, the “% Inhibition” value rises from -7% to -6%.

Compared with `COc1ccnc(CN2CCC3(CCC(=O)N(CCc4ccccc4)C3)CC2)c1`, `O=C1OC2(CCNCC2)CN1CC(=O)N(Cc1ccccc1)C1CCCC1` is higher in “% Inhibition” value: 0% for the first, 7% for the second.

Compared with `CN(C)C(=O)c1ccc(N2C[C@@H](C(F)(F)F)OC(C)(C)C2)nc1`, `CC1(C)OC[C@H](C(O)CNc2ccncc2C(F)(F)F)O1` (stereo partly drawn) is lower in “% Inhibition” value: 10% for the first, 3% for the second.

Compared with `CS(=O)(=O)NC1(c2ccc(F)cc2)CC1`, `Cc1ccc(CNC2=NCCCNC23CCCCC3)cc1` is higher in “% Inhibition” value: -11% for the first, 7% for the second.

Going from `CCN(CC)c1ccc(C(=O)NC(c2ccccc2)c2ccccc2)cc1` to `CC(C)[C@H](NC(=O)c1ccccc1-c1ccccc1)c1ncnn1C`, the “% Inhibition” value falls from -2% to -4%.

Compared with `CCN(Cc1cc(=O)c2cc(C)cc(C)c2[nH]1)[C@H]1CCS(=O)(=O)C1`, `CCCN1CCN(C(=O)c2c(C)nn(CC)c2C)[C@H]2CS(=O)(=O)C[C@H]21` is higher in “% Inhibition” value: -16% for the first, -6% for the second.

First: Cc1cc(C(=O)N2CCC(=C3CCC3)CC2)nn1C
Second: CC(=O)c1cccc(NC(=O)N2CCCCCCC2)c1
The “% Inhibition” value of the first is lower: -24% for the first, 2% for the second.

First: CC1(C)CC(NC(=O)N[C@@H](Cc2ccc(O)cc2)C(N)=O)CC(C)(C)C1
Second: Cc1ccc(CC2CN(C(=O)NCc3cnc(C)o3)C2)cc1
The “% Inhibition” value of the first is lower: 1% for the first, 11% for the second.

First: O=c1[nH]cnc2c1c(-c1ccccc1)c(-c1ccccc1)n2C[C@H]1CCCO1
Second: Cc1[nH]c(=O)c(C(=O)NC[C@H]2CCCO2)cc1-c1ccccc1
The “% Inhibition” value of the first is higher: -2% for the first, -3% for the second.

Going from `COc1ccc(Cl)cc1-c1c(N2CCCC2)cn[nH]c1=O` to `Nc1nc(-c2cccc(C(=O)N[C@H]3CCOC3)c2)cc(N2CCCC2)n1`, the “% Inhibition” value falls from 1% to -12%.

Going from `COc1ccnc(N(C)CC2CCN(CCO)CC2)n1` to `CCCN1CC2(CCN(c3ncncc3C(C)C)CC2)C[C@H]1C(=O)O`, the “% Inhibition” value falls from 4% to -10%.

Compared with `COCC(=O)N(CCN1CCOCC1)CC(=O)N1N=C(c2ccc(OC)cc2)C[C@H]1c1ccc2c(c1)OCO2`, `COc1ccc(N2CCN(C(=O)CCc3c(C)nn4cnnc4c3C)CC2)cc1` is lower in “% Inhibition” value: -13% for the first, -14% for the second.

Compared with `O=C(NC[C@@]1(COc2cccnc2)C[C@@H](O)[C@@H](O)C1)C1CCOCC1`, `Cc1cc(C(=O)N2C[C@@H]3CC[C@H]2CN(Cc2ccccn2)C3)c(C)o1` is higher in “% Inhibition” value: -10% for the first, -3% for the second.

First: C=CCNc1nc2cc3c(cc2nc1NS(=O)(=O)c1ccccc1)OCCO3
Second: Cc1ccc(S(=O)(=O)Nc2nc(-c3ccccc3)cc(-c3cc(Cl)ccc3O)n2)cc1
The “% Inhibition” value of the first is higher: -2% for the first, -24% for the second.

Going from `CCc1noc(C)c1Cn1cnc(C(C)(C)C)n1` to `Cc1cc(-c2ccc(C)c(S(=O)(=O)CCC(=O)Nc3cccc(Cl)c3)c2)on1`, the “% Inhibition” value falls from -6% to -7%.

First: C=CCNC(=O)c1cccn(-c2ccc(NC(=O)c3ccc(F)cc3)cc2)c1=O
Second: O=C(CN1CN(c2ccccc2)C2(CCN(C(=O)Nc3ccc(F)cc3F)CC2)C1=O)Nc1ccc(F)cc1
The “% Inhibition” value of the first is lower: -11% for the first, -4% for the second.

Compared with `NC(=O)OCCOC(=O)c1ccc(Cl)cc1F`, `Fc1cc(Cl)ccc1CNCCc1cnccn1` is lower in “% Inhibition” value: -3% for the first, -5% for the second.

Going from `CN(Cc1cc(C2CC2)on1)C(=O)NCCC1=CC[C@H]2C[C@@H]1C2(C)C` to `CN(C)Cc1cc(C[C@@H]2C[C@H](NCc3ccccc3)C2(C)C)no1`, the “% Inhibition” value rises from -19% to -11%.

Compared with `COCCN(Cc1ccc(C)s1)C(=O)N[C@@H](C)Cc1ccccn1`, `CC[C@@H](CNC(=NC)NCc1ccnn1C)Oc1cccc(F)c1` is lower in “% Inhibition” value: 0% for the first, -8% for the second.

First: CCONC(=O)N[C@@H](C1CCCC1)C(F)(F)F
Second: O=C1CCCCN1CCCNS(=O)(=O)C1CCC(C(F)(F)F)CC1 (stereo not drawn)
The “% Inhibition” value of the first is higher: 9% for the first, -3% for the second.

First: O=C(Nc1cccc(-n2cnnc2)c1)C(=O)N[C@H](CO)Cc1ccccc1
Second: O=C(NCc1cccc(F)c1)N1CCc2[nH]c(-c3cccnc3)nc2C1
The “% Inhibition” value of the first is lower: -5% for the first, 1% for the second.

Going from `C[C@H](NC(=O)c1cccn1C)c1n[nH]c(=O)n1C` to `Cc1cc(C)cc([C@H](C)NC(=O)NCc2cnn(C)c2)c1`, the “% Inhibition” value falls from 4% to -1%.

Compared with `CCC(C)(CCO)NC(=O)NCC(C)c1ccsc1` (stereo not drawn), `CC(=O)NC[C@H]1CCCN1c1ccccc1` is lower in “% Inhibition” value: -2% for the first, -11% for the second.

`CC(C)c1ocnc1C(=O)N[C@H]1CCO[C@@H]1c1cnn(CC2CC2)c1` and `C=C(C)COc1ccccc1CNCCc1[nH]nc2c1CCCC2` are the same in “% Inhibition” value: 0% for the first, 0% for the second.

First: COc1cccc(-c2nnc(-c3cnccn3)[nH]2)c1
Second: c1cc(-c2ccc3c(c2)OCCCO3)n2ncnc2n1
The “% Inhibition” value of the first is lower: -13% for the first, 10% for the second.

Compared with `O=C(NCCc1c[nH]c2cc(F)c(Cl)cc12)[C@H]1CC1(F)F`, `Cc1c[nH]c(CN(C)Cc2cc(Cl)ccc2OCC(N)=O)n1` is higher in Z score: -0.36 for the first, 1.17 for the second.

Going from `CCOC(=O)N(C)CC(=O)Nc1ncc(C)s1` to `CCOC(=O)c1ccc(C(=O)O[C@@H](CC(C)C)C(=O)OC)nc1C`, the Z score rises from -2.04 to 1.

First: C[C@@H](c1cccnc1)N(C)Cc1cc(CN2CCCC2)cs1
Second: Cc1cccnc1CCNC(=O)N(C)[C@@H](C)c1ccncn1
The Z score of the first is lower: 0.82 for the first, 1.12 for the second.

First: COc1ccnc(CN2CCC3(CCC(=O)N(CCc4ccccc4)C3)CC2)c1
Second: O=C1OC2(CCNCC2)CN1CC(=O)N(Cc1ccccc1)C1CCCC1
The Z score of the first is higher: 0 for the first, -1.45 for the second.

First: CN(C)C(=O)c1ccc(N2C[C@@H](C(F)(F)F)OC(C)(C)C2)nc1
Second: CC1(C)OC[C@H](C(O)CNc2ccncc2C(F)(F)F)O1 (stereo partly drawn)
The Z score of the first is lower: -1.29 for the first, -0.54 for the second.

Compared with `CS(=O)(=O)NC1(c2ccc(F)cc2)CC1`, `Cc1ccc(CNC2=NCCCNC23CCCCC3)cc1` is lower in Z score: 2.11 for the first, -0.96 for the second.

Compared with `CCN(CC)c1ccc(C(=O)NC(c2ccccc2)c2ccccc2)cc1`, `CC(C)[C@H](NC(=O)c1ccccc1-c1ccccc1)c1ncnn1C` is higher in Z score: 0.22 for the first, 0.63 for the second.

First: CCN(Cc1cc(=O)c2cc(C)cc(C)c2[nH]1)[C@H]1CCS(=O)(=O)C1
Second: CCCN1CCN(C(=O)c2c(C)nn(CC)c2C)[C@H]2CS(=O)(=O)C[C@H]21
The Z score of the first is higher: 3.14 for the first, 0.82 for the second.

Compared with `Cc1cc(C(=O)N2CCC(=C3CCC3)CC2)nn1C`, `CC(=O)c1cccc(NC(=O)N2CCCCCCC2)c1` is lower in Z score: 3.68 for the first, -0.33 for the second.

Compared with `CC1(C)CC(NC(=O)N[C@@H](Cc2ccc(O)cc2)C(N)=O)CC(C)(C)C1`, `Cc1ccc(CC2CN(C(=O)NCc3cnc(C)o3)C2)cc1` is lower in Z score: -0.17 for the first, -1.3 for the second.

First: O=c1[nH]cnc2c1c(-c1ccccc1)c(-c1ccccc1)n2C[C@H]1CCCO1
Second: Cc1[nH]c(=O)c(C(=O)NC[C@H]2CCCO2)cc1-c1ccccc1
The Z score of the first is lower: 0.2 for the first, 0.67 for the second.

Compared with `COc1ccc(Cl)cc1-c1c(N2CCCC2)cn[nH]c1=O`, `Nc1nc(-c2cccc(C(=O)N[C@H]3CCOC3)c2)cc(N2CCCC2)n1` is higher in Z score: -0.09 for the first, 1.89 for the second.

Going from `COc1ccnc(N(C)CC2CCN(CCO)CC2)n1` to `CCCN1CC2(CCN(c3ncncc3C(C)C)CC2)C[C@H]1C(=O)O`, the Z score rises from -0.35 to 1.12.

First: COCC(=O)N(CCN1CCOCC1)CC(=O)N1N=C(c2ccc(OC)cc2)C[C@H]1c1ccc2c(c1)OCO2
Second: COc1ccc(N2CCN(C(=O)CCc3c(C)nn4cnnc4c3C)CC2)cc1
The Z score of the first is higher: 1.78 for the first, 1.45 for the second.

Compared with `O=C(NC[C@@]1(COc2cccnc2)C[C@@H](O)[C@@H](O)C1)C1CCOCC1`, `Cc1cc(C(=O)N2C[C@@H]3CC[C@H]2CN(Cc2ccccn2)C3)c(C)o1` is lower in Z score: 1.98 for the first, 0.56 for the second.

Compared with `C=CCNc1nc2cc3c(cc2nc1NS(=O)(=O)c1ccccc1)OCCO3`, `Cc1ccc(S(=O)(=O)Nc2nc(-c3ccccc3)cc(-c3cc(Cl)ccc3O)n2)cc1` is higher in Z score: 0.38 for the first, 2.77 for the second.

Going from `CCc1noc(C)c1Cn1cnc(C(C)(C)C)n1` to `Cc1cc(-c2ccc(C)c(S(=O)(=O)CCC(=O)Nc3cccc(Cl)c3)c2)on1`, the Z score rises from 0.83 to 0.98.

Compared with `C=CCNC(=O)c1cccn(-c2ccc(NC(=O)c3ccc(F)cc3)cc2)c1=O`, `O=C(CN1CN(c2ccccc2)C2(CCN(C(=O)Nc3ccc(F)cc3F)CC2)C1=O)Nc1ccc(F)cc1` is lower in Z score: 1.45 for the first, 0.65 for the second.

Compared with `NC(=O)OCCOC(=O)c1ccc(Cl)cc1F`, `Fc1cc(Cl)ccc1CNCCc1cnccn1` is higher in Z score: 0.53 for the first, 0.7 for the second.

Compared with `CN(Cc1cc(C2CC2)on1)C(=O)NCCC1=CC[C@H]2C[C@@H]1C2(C)C`, `CN(C)Cc1cc(C[C@@H]2C[C@H](NCc3ccccc3)C2(C)C)no1` is lower in Z score: 3.26 for the first, 1.64 for the second.

First: COCCN(Cc1ccc(C)s1)C(=O)N[C@@H](C)Cc1ccccn1
Second: CC[C@@H](CNC(=NC)NCc1ccnn1C)Oc1cccc(F)c1
The Z score of the first is lower: 0.08 for the first, 0.91 for the second.

First: CCONC(=O)N[C@@H](C1CCCC1)C(F)(F)F
Second: O=C1CCCCN1CCCNS(=O)(=O)C1CCC(C(F)(F)F)CC1 (stereo not drawn)
The Z score of the first is lower: -1.27 for the first, 0.54 for the second.

Going from `O=C(Nc1cccc(-n2cnnc2)c1)C(=O)N[C@H](CO)Cc1ccccc1` to `O=C(NCc1cccc(F)c1)N1CCc2[nH]c(-c3cccnc3)nc2C1`, the Z score falls from 0.79 to -0.12.

Going from `C[C@H](NC(=O)c1cccn1C)c1n[nH]c(=O)n1C` to `Cc1cc(C)cc([C@H](C)NC(=O)NCc2cnn(C)c2)c1`, the Z score rises from -0.83 to 0.1.

Compared with `CCC(C)(CCO)NC(=O)NCC(C)c1ccsc1` (stereo not drawn), `CC(=O)NC[C@H]1CCCN1c1ccccc1` is higher in Z score: 0.32 for the first, 2.13 for the second.

Going from `CC(C)c1ocnc1C(=O)N[C@H]1CCO[C@@H]1c1cnn(CC2CC2)c1` to `C=C(C)COc1ccccc1CNCCc1[nH]nc2c1CCCC2`, the Z score falls from -0.03 to -0.04.

First: COc1cccc(-c2nnc(-c3cnccn3)[nH]2)c1
Second: c1cc(-c2ccc3c(c2)OCCCO3)n2ncnc2n1
The Z score of the first is higher: 1.5 for the first, -1.23 for the second.
